From paper PMC10668032
The list shows a part of the results. At the low end of the ranking, values are background and their order means little.

Target: SIX1-Q177R homeodomain (UniProt Q15475)
Assay: universal protein binding microarray
Conditions: Universal all-10-mer PBM (8x60K, AMADID 030236), 300 nM GST-tagged protein, Alexa Fluor 488 anti-GST; buffer, salt, pH and temperature not stated; high values mean tight binding; most listed sequences are background and not binding sites; double strand, one strand shown

Sequence | binding signal [E-score]
CCGTTGGC | 0.0314
ATTGAATG | 0.0654
TCCGACGA | -0.134
CGGGATAC | 0.281
CTGGCGCC | -0.25
AAATCCCC | 0.122
GAGTTGTA | -0.0303
GATACCAC | 0.325
TAGAGGGA | -0.0889
AGAGAATC | -0.167
TTGATAAA | -0.154
ACATGAAC | -0.0781
AGCCCAAG | -0.342
GAAAGGGC | -0.32
ACTCGAAG | -0.0475
GCCATAGC | 0.0455
CTTGTGTA | 0.154
AAACAGTA | -0.115
AGTATTGA | -0.0693
AATTAGAA | -0.284
AACGACTT | -0.262
AGGCAGGG | -0.0227
AGGGTGTC | 0.488
CCTTAATA | 0.0625
ACTTACAA | -0.0698

Sequence | binding signal [E-score]
AACCTACG | -0.271
GTTAAGCA | 0.0527
ACCGTGAC | 0.0905
AACGGCCA | -0.238
CGTAGTGA | 0.0773
ATACTTAC | 0.097
TCAAGTCA | -0.25
AATGCGAC | -0.00036
CTCGGACA | 0.171
ATGATGCA | -0.183
CATACATA | -0.247
ACTGATCC | 0.16
ATTGTCAC | 0.0274
CTTGGTGA | 0.0611
AAATTCAG | -0.179
CGTCTGAA | -0.133
GGACGCAA | -0.104
AAGTGCTC | 0.0929
GCTTGGAA | -0.196
AATTGGAA | -0.0206
CAATCGCC | -0.0462
GCTACCGA | -0.22
CTCGCGGC | 0.00649
AATCGCGT | 0.0255
CGCGACTA | 0.0701

Sequence | binding signal [E-score]
GGCGGCGA | -0.00477
TGGCCTAA | -0.256
ACATGATC | 0.0566
ATACCTCC | 0.231
GACGCTGA | -0.0673
CTCAAAAG | 0.0248
AAGATCAA | -0.129
ATCCTCAA | -0.155
TAAGGTCA | -0.162
AGTTGCTG | -0.222
CTGCGATA | 0.0553
ACGGCTTG | -0.138
GCTCGGTA | -0.118
AATCTGGT | 0.159
ATCTGCAT | -0.124
AGGATGCC | -0.0952
CCCTTCGA | -0.0186
ACGCCTAG | 0.0683
CATGGCCA | -0.175
CTTGAGTC | -0.211
CATTGCAA | -0.135
CAGCCTAG | -0.0898
ATGGTATA | 0.0711
ACCTATAA | 0.177
CTGGAAAC | 0.178

Sequence | binding signal [E-score]
CCTGGGGA | -0.119
CAGATTAG | -0.0223
CGGACCTC | -0.0342
CGGTTACC | 0.0351
AAAATATA | -0.00472
CACAAGGC | -0.0207
GTTCCTCA | -0.0768
CGAATTAC | 0.00159
GCTTACTA | -0.201
CTTGTCGC | -0.236
GTCATTGA | 0.0213
ACCAAAGA | -0.0672
CACTTATG | 0.161
CAGGATCG | -0.012
AAATGGAG | 0.0508
CCCATCCA | 0.0199
ATCCTAAG | -0.268
AAAGACAG | 0.0883
ATGGTCGA | -0.0208
AGACGTTC | -0.329
GGCCATGA | 0.0132
AGCTCCTC | -0.108
CCTTCTTC | -0.1
AAGTCTAG | -0.241
AAGTAGTC | -0.103

Sequence | binding signal [E-score]
AAATCACC | -0.103
CTTCCCGA | 0.0921
GTTCTGCA | 0.0204
CCGATACG | 0.0455
AGAAAGTC | -0.265
CCGAATTC | -0.101
CCGTGCAG | 0.111
ACAAACGG | -0.09
TCCGAAAA | -0.049
ATAGTGGA | 0.05
ACGGTAAG | 0.0149
ATCGGAAG | -0.112
TATGATGA | -0.136
GTTTTAGA | -0.187
CTTCTTCC | -0.171
CACCGAGG | 0.247
CACGCGTC | 0.262
ACAAAGCA | -0.125
CCTGATAA | -0.156
CCTATTCC | -0.245
CAGATCAC | -0.00859
CCACGCCC | 0.106
CCCCTTTA | 0.0582
AAGTCTAA | -0.0559
ATCTGGAA | -0.0977

Sequence | binding signal [E-score]
AAGTGGGT | 0.0961
ATGGATGC | -0.156
GGCAGCCC | -0.0126
CTCTAGAC | 0.0385
AGAGTCCT | -0.0889
GATCATCC | 0.121
GGCCCCAC | -0.181
AGGAAACT | -0.271
TATGGTCA | -0.119
GCTAGTAC | -0.00805
TAGTGTAA | 0.408
CCATACTC | 0.0477
GGTTGACA | 0.137
ACGATGCT | 0.0406
CCATGGCA | 0.00479
CTATTCTC | -0.0853
CAGGAGGG | -0.0044
GAGCTACA | 0.0255
GTTTGCGA | 0.066
AGCTTTCG | -0.271
TAGGAGAA | -0.0203
CCTAGCCC | 0.0152
CGAATTCA | -0.157
CCTGGAGC | -0.0512
AGCCACCA | -0.154

Sequence | binding signal [E-score]
ATCACTTG | 0.0272
CCCACCTA | 0.128
TGTAGTAA | 0.101
ACTTCTTA | 0.183
CAATAGAG | -0.153
AGGGTTTA | 0.117
ACCCGGGA | 0.192
ATGATTAG | -0.163
ACAAATGC | -0.164
CGAACGAC | -0.0347
CTTTCTGC | -0.135
AATTGCCG | -0.256
CCGTTACA | 0.0479
CACGTCGG | 0.116
AATCAACA | 0.111
GGTTACGA | 0.0649
AACGCGAC | 0.0364
GAAGTTTA | -0.211
TACTTTAA | -0.0886
GCACATAC | -0.0779
CAATGCAG | -0.0994
AATCCCGT | 0.0379
AGCCGTCA | -0.203
CCCCGAAG | 0.0692
ACCCGGCC | 0.117

Sequence | binding signal [E-score]
ACGATTAA | 0.0366
CCCCCGCA | 0.218
GTAAAGAC | -0.0577
AGGACACG | 0.349
AACTCTGC | -0.154
GCGTGCCA | -0.177
GGTGTTAA | 0.475
AGAGTGTA | 0.424
ATGATGCG | -0.196
CCCTGGAA | 0.0711
CGGGCGGA | 0.00552
TACGAACA | 0.191
ATGCCTTC | -0.00166
CCACCATC | -0.0588
ACGGATCT | 0.0527
ACTTTTCG | -0.145
CCGCGCAG | -0.151
AATAGTAT | 0.0509
ACGAGTGC | -0.034
CAGGGGAG | 0.0638
AGACTATC | -0.0507
ACGTGCAG | 0.0977
CGGAGACA | 0.0809
GTGCCGGA | -0.0582
ACTAGACA | 0.0932

Sequence | binding signal [E-score]
CTTGCAGC | -0.383
ACGAATGG | -0.148
ACCCCGTG | 0.356
TAGACTGA | -0.145
AAATGTCC | -0.16
GTTTAGAA | -0.0607
TGTGTGAA | 0.187
CCTCCGAC | -0.0114
CAGGCTCA | -0.0317
CTTGCTAA | -0.196
ATAGAGAG | -0.211
GATGGAAA | -0.0901
ATGGGTGA | 0.0911
AACCCTAG | 0.104
CCTCCTTA | 0.134
CCAGATTA | -0.039
GTCCACGA | -0.177
AATGGGGG | 0.103
AAGGGAGC | 0.0587
CGAGACAG | 0.0251
TAAGACCA | -0.14
GCTAGACC | -0.0586
AGGAGACG | -0.078
CCGAAGCC | -0.164
CGAACTCA | -0.198

Sequence | binding signal [E-score]
AGCATATA | -0.116
CGCTTCGC | -0.113
AGGCAAAT | -0.203
GCCTGATA | -0.11
ATAAACCG | 0.0455
CAGCCGAA | -0.0868
CATCCCGG | 0.0946
CACATCAG | -0.0226
CATCCACA | 0.177
AGGCTACG | -0.00497
GCGTAGCC | -0.0748
GAACCTAA | -0.098
ACGAAGCG | 8e-05
CCACAACG | -0.075
CGTTATGA | 0.0627
CCTGTTTC | -0.173
CGGTTCGA | 0.0241
CTCTTATA | 0.0846
GCAAACCC | 0.0906
AAACCCGA | 0.0673
ATAATAAG | 0.0755
TCTGACAA | -0.0348
GCCTTAGA | -0.0259
AAATTCGT | -0.0758
CACTATCC | 0.196

Sequence | binding signal [E-score]
CCAACCCG | 0.113
ATCGTCAC | 0.147
AGGATACC | 0.337
GGTGCAAA | 0.138
AATGGTGA | -0.0338
CGGATGCC | 0.0748
ACCTCGGG | 0.273
CAGTTCAA | -0.179
ATTTAGTA | -0.0808
CCAAAAAA | -0.17
TGGAAACA | 0.223
ACCTCGGC | -0.0893
AATCGGCT | -0.2
AGATTCAA | -0.304
CAACGCAC | -0.0433
AAACCTAT | -0.237
AGCTGTTA | -0.274
AAAACAAA | -0.0789
CAGCCCAC | -0.278
CTATATTC | -0.0762
AAGTACAG | -0.294
AGGAGTGA | 0.0183
GAAAAATA | -0.104
ACGTCTTC | -0.0447
TATTAGGA | -0.125

Sequence | binding signal [E-score]
AACCCGCT | 0.0726
GAGCGTCA | -0.0393
ATTAAGTA | 0.0478
ATTCCGTG | 0.2
ATATTGAC | 0.00453
GACCCGCC | 0.18
CGCACGCC | -0.0509
CTCGGCGC | -0.105
AGGCAGAC | -0.037
AACTTCTG | -0.283
ATCACGGC | -0.171
CATCGCCC | 0.0637
CGACGCAG | -0.0203
AGCAAATG | -0.182
CGTGGTGC | 0.187
GGAATAAA | 0.0126
CCGATACA | 0.129
CTAGGTTA | -0.279
GGCAGCAC | 0.0446
CATCTTGA | -0.145
ACCGCTCC | 0.0647
GTAACGTA | 5e-06
CGGAACTC | 0.128
GCAGCGGA | -0.131
CAACAGGA | -0.052

Sequence | binding signal [E-score]
ACCTGCGA | 0.0341
GACGGGAA | -0.201
CCCTGTTA | 0.0394
CCTTACCA | 0.0674
ATCCGATA | 0.141
CAAGATGA | -0.039
AATTGAGA | -0.0914
AATTCAAT | -0.0892
CCTACGGC | -0.187
ACACCAAA | 0.466
ATGAATGA | -0.0749
CAGGTGAA | -0.133
GCTTATCA | 0.0683
GAGAACCC | 0.0436
CGGTAGCA | -0.0845
AGACCTCG | 0.0395
CAACCGGG | 0.0576
CATTGACG | 0.052
TCGAGAGA | -0.192
GGACTCAA | -0.087
CTGGTACC | -0.0452
ATCCCTCC | 0.0884
AATTCGAC | -0.071
CCGACAAC | 0.0273
CAACCCTG | 0.00699

Sequence | binding signal [E-score]
GCTGATCC | 0.0867
ATGGACTG | -0.176
AGAGACAT | -0.194
GCCCAATA | -0.0658
GTATTTTA | -0.0685
AATACCCG | 0.0887
CTGAAATA | -0.104
AAACGCTA | -0.172
ACCAGAGG | 0.0268
AGGTCTAA | -0.165
TCGCTCAA | -0.0676
AGTGGTGG | 0.126
TCCTAACA | 0.0801
ACTTACAT | -0.188
CGTGAATA | -0.0602
AAGGTCTC | -0.0719
ACCTGTCA | -0.0217
ATTATCAC | -0.00577
AAGTAAAC | 0.0316
